Assay results as given in the supplement of paper PMC11417369.
± gives the standard deviation of the averaged measurements. The list shows a part of the results.

system: PfAP2-G AP2 domain (GST-tagged); assay: gcPBM binding intensity (ln(normalized median fluorescence intensity)); higher = stronger DNA binding
How it was run: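 In this array assay, P. falciparum DNA-binding domains with a GST tag, expressed in E. coli, were applied for 1 h to primer-extended double-stranded 36-bp intergenic genomic probes and negative controls on an Agilent 4 × 180k array. Bound protein was visualised with Alexa488 anti-GST antibody at 488 nm. Binding intensity is the highest Masliner-normalised natural-log median intensity across replicate spots of either probe orientation.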

Sequence	gcPBM binding intensity (ln)
AAATTTGGTGAAGGATGTACTTTACCTAATACTTGT [XGTACX_site4825]	11 ± 0.62
TATATATATTGTTATTGTACACAAATATAGGAAATA [XGTACX_site7110]	11.4 ± 0.87
AAAACAAAAAAATTTTGTACGAAACAATACTGTAAG [XGTACX_site7992]	10.6 ± 0.29
TTTTTTTTTGGGTGTACACATGAATATATATTTTTT [CACACA_site5254]	11.7 ± 0.95
AAAAAAATATATTCCTAATTTATGATTAAAAGGAAT [CACACA_negctrl_site751]	9.52 ± 0.16
ATAAATTAAACAAACACACACGTTCTTTTATTTACT [CACACA_site4556]	9.985 ± 0.049
AGAATTATATCATGGTGTACTTATTTGTTTATTTCT [XGTACX_site5795]	11.6 ± 1
AACATTATCAAATAAACCATAAATCAATTCAATATG [CACACA_negctrl_site696]	9.945 ± 0.092
AAACGTTTATTTTATTGTACATATGAAAAATGCTTC [XGTACX_site6896]	11 ± 0.69
TTGTATAAAAAACTAAAAAATATAAAATAATAAGTG [CACACA_negctrl_site1704]	10.1 ± 0.13
ATATTTTTTTTTTTCACACACATTTAGATTGTATTA [CACACA_site3137]	10 ± 0.11
AAAAAAAAAAAAAATTGTACGGATTCTTTTTTTTTT [XGTACX_site2898]	11.1 ± 0.55
TATATTTATATATATACACACATAATAAAAAATATA [CACACA_site844]	9.9 ± 0.11
TTGTTTTGTAATAAAAAAAAAATAATATAATATAAT [XGTACX_negctrl_site300]	9.78 ± 0.11
CGTAATAATTAATGTTGTACCCACCAAAAAAATTAA [XGTACX_site8592]	11.3 ± 0.93
ATTACATTTTTGTTTTGTACATATATTTTATAAACA [XGTACX_site494]	11.1 ± 0.56
TATAAAAAAAATAAAATAAAATAAAATAGAAAAATA [TGCATGCA_negctrl_site109]	9.78 ± 0.4
GAAATATTGAAACACACACACAAACATATATATATA [CACACA_site1911]	10.1 ± 0.35
TTTATAGTTTTAAACAAAGTAATACAAATGTATATA [CACACA_negctrl_site1716]	9.77 ± 0.12
GAAAAATTAAAATGTGGTACAATAAAATTTTATTCA [XGTACX_site5030]	11.4 ± 0.98
ATATTTATACTATACACACCCAATTTAAAAAAAAAT [CACACA_site1163]	10.2 ± 0.11
AATTTATTAATACAAAGTACTTTCTAATATGAATTT [XGTACX_site8013]	10.8 ± 0.49
TTATTGCGCACAATTTGTACATATATATATATAGAA [XGTACX_site7573]	11 ± 0.54
GTAAGAAACAGACACACACACATATAAATATAAATA [CACACA_site6515]	10.2 ± 0.32
